Source: PubChem BioAssay AID488969 (Vanderbilt High Throughput Screening Facility, 2010)
The full ranking holds about 110,000 compounds; the median of “z-score” is about -0.1, and the highest 2% start at about 2. This is one part of the list. Activity calls are given as the source filed them.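 Rule for the calls: active = z-score in the third read window above 3 or below -3; inactive = the rest.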

Each compound was assayed against Metabotropic glutamate receptor 8 (Rattus norvegicus) (UniProt P70579) (assay: rat mGluR8 modulators via GIRK flux, primary screen, cell-based, thallium flux, HTS (AID 488969)). Details: HEK293 rat mGluR8, GIRK (G protein-gated inwardly rectifying potassium channel) thallium flux, FluoZin2; at 10 µM; stronger effect = higher value; submaximal glutamate (EC20) added with thallium.
Sequence of UniProt P70579 (P70579 whole entry, looked up): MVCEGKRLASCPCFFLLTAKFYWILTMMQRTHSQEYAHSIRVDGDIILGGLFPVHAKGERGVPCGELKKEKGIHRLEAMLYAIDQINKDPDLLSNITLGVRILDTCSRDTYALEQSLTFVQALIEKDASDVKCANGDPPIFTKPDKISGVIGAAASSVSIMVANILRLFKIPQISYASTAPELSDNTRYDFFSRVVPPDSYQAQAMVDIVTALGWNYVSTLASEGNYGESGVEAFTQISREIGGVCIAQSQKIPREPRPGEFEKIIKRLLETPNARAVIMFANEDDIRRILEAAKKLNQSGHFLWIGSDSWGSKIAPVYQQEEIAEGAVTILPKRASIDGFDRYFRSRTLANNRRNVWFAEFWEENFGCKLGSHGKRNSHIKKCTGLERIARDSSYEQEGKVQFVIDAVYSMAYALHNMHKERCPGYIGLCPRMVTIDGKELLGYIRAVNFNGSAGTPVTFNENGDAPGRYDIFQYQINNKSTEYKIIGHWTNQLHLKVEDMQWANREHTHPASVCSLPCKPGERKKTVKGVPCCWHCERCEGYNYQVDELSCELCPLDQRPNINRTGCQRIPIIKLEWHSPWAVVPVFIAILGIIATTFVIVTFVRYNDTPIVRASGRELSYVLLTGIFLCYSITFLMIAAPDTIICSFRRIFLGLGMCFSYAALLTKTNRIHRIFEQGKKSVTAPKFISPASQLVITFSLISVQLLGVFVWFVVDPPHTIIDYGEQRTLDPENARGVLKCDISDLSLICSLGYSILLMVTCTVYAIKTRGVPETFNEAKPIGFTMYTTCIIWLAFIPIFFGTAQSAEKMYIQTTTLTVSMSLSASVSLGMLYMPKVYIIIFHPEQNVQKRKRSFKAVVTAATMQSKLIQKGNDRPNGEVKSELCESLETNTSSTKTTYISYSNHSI

In order of rising z-score:
1. Cc1ccc(N(C(=O)c2sc(C)nc2C)C(C(=O)NCc2ccco2)c2ccccc2)cc1 (stereo not drawn)  -2.09
2. COc1ccc(/C=C/C(=O)Nc2cccc(C(C)=O)c2)cc1  -0.7
3. O=C(CSc1nc2ccccc2[nH]1)Nc1cc(C(F)(F)F)ccc1N1CCOCC1  -0.658
4. COc1ccc(NC(=O)CN(c2cc(C)cc(C)c2)S(=O)(=O)c2c(C)noc2C)cc1  -0.52
5. COc1cc(-c2nnc(SCC(=O)c3cc(C)n(CC4CCCO4)c3C)o2)cc(OC)c1OC (stereo not drawn)  -0.503
6. COc1ccc(-c2cc(C(N)=O)nc(N3CCCCCC3)n2)cc1  -0.488
7. CN1C(=O)/C(=C2\SC(N3CCCCCC3)=NC2=O)c2ccccc21  -0.473
8. Cc1cc2cc(C)c3nnc(SCC(=O)N4CCN(C(=O)c5ccco5)CC4)n3c2cc1C  -0.423
9. O=C(c1cnn2c(C(F)F)cc(C3CC3)nc12)N1CCCC1  -0.417
10. Cc1cc(SCC(=O)N/N=C/c2ccc(O)c(O)c2O)c(C)cc1Br  -0.402
11. CC(=O)NC(Cc1ccccc1)C(=O)NC1CCN(C(=O)c2cnccn2)CC1 (stereo not drawn)  -0.219
12. COc1ccc(C(=O)Nc2cc(Cl)ccc2OC(=O)c2ccc(OC)cc2)cc1  -0.218
13. CC12CCCCC1N(O)C(=O)C(=O)N2O (stereo not drawn)  -0.218
14. Cc1[nH]c2ccccc2c1SCC(=O)O  -0.21
15. Cc1c(NC(=O)OCCNC(=O)COc2ccc(Cl)cc2Cl)sc(=S)n1C  -0.19
16. Cc1nn(C)c(C(=O)Nc2ccn(Cc3ccccc3F)n2)c1[N+](=O)[O-]  -0.18
17. CCC1CCc2c(sc(NC(=O)CSc3nc(-c4ccco4)cc(C(F)(F)F)n3)c2C#N)C1 (stereo not drawn)  -0.169
18. COc1ccc(N/C=C\C(=O)c2ccc(Br)cc2)cc1OC  -0.129
19. COc1ccc(/C=N/Nc2nc(-c3ccc(Cl)cc3)cc(C(F)(F)F)n2)c(OC)c1  -0.127
20. O=C(Oc1ccccc1/C=C\C(=O)c1cc2ccccc2o1)c1ccccc1  -0.109
21. CCOc1ccc(-c2c(C)n([O-])c3c([n+]2=O)CCCC3)cc1  -0.094
22. CC(=O)Nc1ccc(-c2nnc(SCC(=O)Nc3ccc4c(c3)oc3ccccc34)n2C)cc1  -0.05
23. COc1ccc2nc(Nc3nc(CSc4nnnn4-c4ccccc4)cc(=O)[nH]3)nc(C)c2c1  -0.0342
24. COc1ccc(N2CCN(C(=O)CSc3nnc(COc4cccc5cccnc45)o3)CC2)cc1  -0.0235
25. OC1(c2ccc(OC(F)F)cc2)CSC(=Nc2cccnc2)N1C1CC1 (stereo not drawn)  -0.02
26. COc1nn(-c2nc(-c3ccccc3)cc(C(F)(F)F)n2)cc1[N+](=O)[O-]  -0.018
27. Cc1ccc(/C=N/N=C2/NC(=O)C(CC(=O)Nc3ccc(Cl)cc3)S2)o1 (stereo not drawn)  0.014
28. COc1ccc(N(CC(=O)Nc2cc(C)on2)S(=O)(=O)c2ccc(Cl)cc2)cc1  0.0257
29. COc1ccc(S(=O)(=O)Nc2cc(C)cc(C)n2)c2ccccc12  0.0461
30. CC(C(=O)Nc1cc(C(F)(F)F)ccc1N1CCOCC1)N1C(=O)C2CC=CCC2C1=O (stereo not drawn)  0.0554
31. C/C(=C\c1ccco1)C1C(C#N)=C(N)Oc2n[nH]c(-c3ccc(C)cc3)c21 (stereo not drawn)  0.0675
32. CC(=O)/C(=N\Nc1ccc(Cl)cc1)Sc1nnc(-c2ccccc2)n1-c1ccccc1  0.0778
33. Cc1nc(NC(C)C)c2cnn(CCc3ccccc3)c2n1  0.135
34. Cc1sc(NC(=O)/C=C/c2ccc(C(C)C)cc2)c(C#N)c1C  0.146
35. OCC1N=C(c2ccccn2)OC1c1ccccc1 (stereo not drawn)  0.226
36. O=C(CN(c1ccc(F)cc1)S(=O)(=O)c1ccccc1)NCCSC1CCCCC1  0.231
37. CCc1cccc(CC)c1NC(=O)CSc1nnc(C(C)C)n1CC  0.342
38. Cc1cccc(C(c2c(C)nn(-c3ccccc3)c2N)c2c(C)nn(-c3ccccc3)c2N)c1  0.343
39. CCCN1CNC(=S)N(c2ccccc2OC)C1  0.365
40. Cc1ccc(-c2nc(SCC(=O)Nc3cc(S(=O)(=O)N4CCCCC4)ccc3Cl)n[nH]2)cc1  0.396
41. Cc1c(C(=O)Nc2ccc(OC(F)(F)F)cc2)sc2nc3n(c(=O)c12)CCC3  0.431
42. O=C(/C=C/Nc1ccc(S(=O)(=O)Nc2ncccn2)cc1)c1ccc(Cl)c(Cl)c1  0.437
43. O=C(NCCN1C(=O)C2C3C=CC(C3)C2C1=O)Nc1ccccc1O (stereo not drawn)  0.461
44. CC1CCc2cc(F)ccc2N1C(=O)CN1C(=O)c2ccccc2C1=O (stereo not drawn)  0.499
45. Cc1ccc(-c2nc(C#N)c(N3CCCCC3)o2)cc1  0.553
46. Cc1ccc(C)c(Oc2ncnc(N)c2[N+](=O)[O-])c1  0.623
47. CCOC(=O)Cc1c(C)nc2cc(C)nn2c1C  0.652
48. CCOc1cc(C2NC(=O)NC(C)=C2C(=O)OCc2ccccc2)ccc1O (stereo not drawn)  0.913
49. c1ccc(Nc2nc(N3CCNCC3)nc(N3CCOCC3)n2)cc1  1.01
50. COc1ccc2[nH]c3c(NCCN(C(C)C)C(C)C)ncnc3c2c1  1.14
51. CC(NC(=O)Nc1cccc([N+](=O)[O-])c1)(C(F)(F)F)C(F)(F)F  1.21
52. O=C(Cn1c(-c2ccccc2)noc1=O)NCc1ccccc1  1.22

`CC(C)N(C(=O)CN(C#N)c1nc(N(C)C)nc(N(C)C)n1)c1ccccc1` was tested, and the z-score was active: -4.1.
